Data as given in the supplement of paper PMC4604168 (melanoma cell lines).
The other results are listed elsewhere or left out. Many values rest on one well or one pass, so single values are uncertain.

How the values were obtained:
Experiment in all cases: cell count relative to DMSO control; melanoma cells; higher = more viable cells
Settings in all cases: library dose: low library concentration; 72 h
MZ2-MEL = system: MZ2-MEL
MeWo = system: MeWo
RPMI7951 = system: RPMI7951
RVH-421 = system: RVH-421
SkMel28 = system: SkMel28
SkMel30 = system: SkMel30
SkMel5 = system: SkMel5
UACC257 = system: UACC257
UACC62 = system: UACC62
WM115 = system: WM115
WM1716 = system: WM1716
WM1745 = system: WM1745
WM3526 = system: WM3526
WM3619 = system: WM3619
WM451Lu = system: WM451Lu
SkMel2 = system: SkMel2
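Note: cell number obtained by counting DAPI-stained nuclei in high-throughput microscope images with image analysis software, screen run in 1,536-well plates.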

SMILES | cell count (MZ2-MEL) | cell count (MeWo) | cell count (RPMI7951) | cell count (RVH-421) | cell count (SkMel28) | cell count (SkMel30) | cell count (SkMel5) | cell count (UACC257) | cell count (UACC62) | cell count (WM115) | cell count (WM1716) | cell count (WM1745) | cell count (WM3526) | cell count (WM3619) | cell count (WM451Lu) | cell count (SkMel2)
C/C(O)=C(\C#N)C(=O)Nc1cc(Br)ccc1Br + CCCCCCCCCCCC1=C(O)C(=O)C=C(O)C1=O [Embelin] (first compound 2 µM, partner dose 1.2 µM) | 98.8% | 109% | 101% | 91.8% | 88.4% | 104% | 91.8% | 89% | 106% | 95.9% | 99% | 92.6% | 108% | 98.9% | 103% | 
OCCn1cc(-c2cnc3nnn(Cc4ccc5ncccc5c4)c3n2)cn1 + Cc1cc(SCc2sc(-c3ccc(C(F)(F)F)c(F)c3)nc2C)ccc1OCC(=O)O [GW0742] (first compound 1 µM, partner dose 2 µM) | 103% | 107% | 100% | 99.6% | 89.1% | 120% | 98.6% | 94.9% | 92.1% | 105% | 91.2% | 105% | 119% | 98.7% | 107% | 
C/C(O)=C(\C#N)C(=O)Nc1cc(Br)ccc1Br + O=C1NC(=O)/C(=C/c2ccc(-c3ccc(F)cc3O)o2)S1 [AS252424] (first compound 2 µM, partner dose 1 µM) | 106% | 113% | 105% | 105% | 85.4% | 107% | 88.9% | 93% | 96.7% | 111% | 104% | 106% | 101% | 87.1% | 92.8% | 
O=S(=O)(c1ccccc1)N(CC(F)(F)F)c1ccc(C(O)(C(F)(F)F)C(F)(F)F)cc1 + C/C(O)=C(\C#N)C(=O)Nc1cc(Br)ccc1Br [LFM-A13] (first compound 1.4 µM, partner dose 2 µM) | 97.8% | 92.7% | 99.3% | 88.2% | 94.2% | 91.7% | 91.2% | 84.4% | 81.5% | 100% | 79.7% | 90.1% | 80.8% | 90.4% | 90.4% | 
O=C(Nc1ccccc1)c1cc([N+](=O)[O-])ccc1Cl + Cc1cc(SCc2sc(-c3ccc(C(F)(F)F)c(F)c3)nc2C)ccc1OCC(=O)O [GW0742] (first compound 2 µM, partner dose 2 µM) | 89.4% | 90.3% | 106% | 91.9% | 77.9% | 132% | 107% | 106% | 82.1% | 92.8% | 87.5% | 93.8% | 83.6% | 103% | 198% | 
Cc1ccc(NC(=O)c2cccc(N(C)C)c2)cc1NC(=O)c1ccc(O)cc1 + C/C(O)=C(\C#N)C(=O)Nc1cc(Br)ccc1Br [LFM-A13] (first compound 2 µM, partner dose 2 µM) | 77.9% | 97.8% | 96.5% | 91.3% | 90.5% | 101% | 93% | 87.5% | 89.6% | 94.9% | 99.5% | 82.6% | 92.3% | 97% | 115% | 
Cn1cnc2c(F)c(Nc3ccc(Br)cc3Cl)c(C(=O)NOCCO)cc21 [selumetinib] + Cn1cc(C2=C(c3cn(C4CCN(Cc5ccccn5)CC4)c4ccccc34)C(=O)NC2=O)c2ccccc21 [Enzastaurin] (first compound 0.015 µM, partner dose 0.8 µM) | 87.7% | 98.2% | 111% | 76% | 99.2% | 54.9% |  |  | 87% | 97.4% | 113% | 104% | 82.5% | 67.2% | 94.5% | 71.9%
Cc1cc(SCc2sc(-c3ccc(C(F)(F)F)c(F)c3)nc2C)ccc1OCC(=O)O + O=C1NC(=O)/C(=C/c2ccc(-c3ccc(F)cc3O)o2)S1 [AS252424] (first compound 2 µM, partner dose 1 µM) | 102% | 91.9% | 104% | 79.4% | 98.8% | 98.2% | 91% | 72.2% | 86.2% | 83.9% | 88.8% | 86.1% | 91.5% | 102% | 115% | 
CC[C@]1(O)C[C@H]2CN(CCc3c([nH]c4ccccc34)[C@@](C(=O)OC)(c3cc4c(cc3OC)N(C=O)[C@H]3[C@@](O)(C(=O)OC)[C@H](OC(C)=O)[C@]5(CC)C=CCN6CC[C@]43[C@@H]65)C2)C1 [vincristine] + Cn1cc(C2=C(c3cn(C4CCN(Cc5ccccn5)CC4)c4ccccc34)C(=O)NC2=O)c2ccccc21 [Enzastaurin] (first compound 0.0001 µM, partner dose 0.8 µM) | 100% | 111% | 65.4% | 89.2% | 98.1% | 109% |  |  | 73.6% | 75.8% | 68.3% | 88.8% | 84.3% | 68.8% | 76.7% | 94.8%
